The text below walks through data of ChEMBL document CHEMBL5308541, “MAIP: An Open-Source Tool to Enrich High-Throughput Screening Output and Identify Novel, Druglike Molecules with Antimalarial Activity” (ACS Med Chem Lett, 2023).

The whole screen tested about 150,000 compounds, of which about 540 (0.36%) showed an effect of 50% or more. This is one part of the list.

For this experiment, the system named is Plasmodium falciparum. The experiment is described as follows: Primary screen in NF54 nanoGlo assay, in single point, at 2uM, 72h; a lower Z score goes with more inhibition. Format: functional, Erythrocyte. As to conditions: timepoint 72 hour.
Regarding `CN1CCN(C2CN(c3ncnc4cc[nH]c34)CC2O)CC1` (centres undefined), the “% Inhibition” value is recorded as 0% and the Z score is reported as 0.03.

Regarding `OC[C@H]1CCCN(CCNCc2nc(-c3ccc(F)cc3)cs2)C1`, the “% Inhibition” value is recorded as -2% and the Z score turned out to be 0.34.

On to `COCCN1C2CCC1CC(NCCCNc1ccccc1)C2` (centres undefined), for which the “% Inhibition” value is given as -6% and the Z score was 0.84.

Turning to `Cn1cc(CNc2ncnc3sccc23)c(-c2ccccc2)n1`, the “% Inhibition” value is given as -4% and the Z score is recorded as 0.94.

As for `CCNS(=O)(=O)N1C[C@@H]2Oc3c(F)ccc(F)c3O[C@@H]2C1`, the “% Inhibition” value is given as -2% and the Z score is on record as 0.36.

In the case of `O=C(c1cc2c(s1)CCOC2)N1CCCc2n[nH]cc21`, the “% Inhibition” value was -9% and the Z score came to 2.04.

Turning to `Cc1cccc2c(-c3ccc(CN4CCCCC4)cn3)c[nH]c12`, the “% Inhibition” value turned out to be 7% and the Z score is on record as -1.17.

Turning to `CCC[C@]1(C(=O)O)CCCN(S(=O)(=O)c2ccc3[nH]c(=O)sc3c2)C1`, the “% Inhibition” value is reported as 4% and the Z score is -0.64.

As to `CNc1nc(C)cc(N2CCC(N3CCC[C@H](C(=O)N4CCOCC4)C3)CC2)n1`, the “% Inhibition” value was 0% and the Z score is reported as 0.02.

In the case of `OCCN1CCN(CCCCNc2ncc(Cl)cc2F)CC1`, the “% Inhibition” value is reported as -2% and the Z score came out at 0.45.

With `CC(C)N1CCN([C@H]2CCN(C(=O)c3ncnc4[nH]ccc34)C2)CC1`, the “% Inhibition” value was determined as 4% and the Z score is -0.79.

Take `Cc1cc2nc(-c3cn(CC(N)=O)c4ccccc34)[nH]c2cc1C`: the “% Inhibition” value was -10% and the Z score was 1.77.

As for `COc1ccccc1CCNc1nc(CN(C)C2CS(=O)(=O)CC2O)nc2ccccc12` (centres undefined), the “% Inhibition” value is given as -15% and the Z score was 2.89.

Take `O=C(NCC[C@@H]1CCCN1)Nc1cccc(-c2cccc(Cl)c2)c1`: the “% Inhibition” value is on record as -5% and the Z score is listed as 0.89.

`CNc1cncc(-c2cc(OC(F)(F)F)ccc2O)n1`: the “% Inhibition” value is recorded as -2% and the Z score was 0.35.

As to `CC(=O)N1CCC(N2CCC(O)(c3csc(CN4CCN(c5ccccn5)CC4)n3)CC2)CC1`, the “% Inhibition” value is reported as -14% and the Z score was 2.17.

For `O=C(NCc1ccc2c(c1)OCO2)c1ccc(N2CCC(NCCCOc3cccnc3)CC2)cc1`, the “% Inhibition” value is -10% and the Z score was found to be 2.07.

Consider `COc1ccc(-c2[nH]ncc2CN(CCN2CCCCC2)[C@H]2CCCNC2)cc1`, for which the “% Inhibition” value turned out to be 5% and the Z score is -0.86.

With `COc1ccc(-c2nnc(-c3cccnc3N3CCN(C4CCN(C)CC4)CC3)o2)cc1`, the “% Inhibition” value came out at 1% and the Z score is -0.16.

For `Cc1csc(N2CCC(NCc3ccnc(N4CCCCCC4)c3)CC2)n1`, the “% Inhibition” value is on record as 4% and the Z score is recorded as -0.58.

Take `C[C@@H](c1ccc(-c2cccc(OCCn3ccnc3)c2)cc1)N1CCOCC1`: the “% Inhibition” value is -6% and the Z score is given as 0.95.

For `Cc1ccccc1CN1CCCN(CCCNC(=O)c2nnc(-c3ccc(F)cc3)o2)CC1`, the “% Inhibition” value is on record as -10% and the Z score is 2.08.

Regarding `CC(C)c1ccc(CN2CCC[C@@](O)(CNCCN3CCNCC3)C2=O)cc1`, the “% Inhibition” value was determined as 26% and the Z score is given as -5.1.

For the molecule `OC[C@H]1CCCCN1CCCNc1ccc2ccccc2n1`, the “% Inhibition” value is given as 2% and the Z score is recorded as -0.37.

For the molecule `O=C(c1c[nH]c2cc(F)ccc12)N1CCC[C@H](CN2CCOCC2)C1`, the “% Inhibition” value is listed as -5% and the Z score came to 0.69.

In the case of `Cc1cc(C)n(-c2cncc(N3CCC(c4c[nH]c5ccccc45)CC3)n2)n1`, the “% Inhibition” value turned out to be 0% and the Z score amounted to 0.07.

On to `CN1CCN(CCCNCc2csc(-c3ncccn3)n2)[C@H](c2ccccc2)C1`, for which the “% Inhibition” value is on record as -4% and the Z score amounted to 0.93.

Regarding `O=C(c1ccc(N2CCC(N3CCC(O)(c4ccccn4)CC3)CC2)cc1)N1CCc2ccccc2C1`, the “% Inhibition” value is listed as -5% and the Z score worked out at 0.89.

Turning to `O=C(NCCCN1CCC(N2CCCCC2)CC1)c1ccn2c(-c3ccc(F)cc3)nnc2c1`, the “% Inhibition” value is reported as -8% and the Z score was 1.64.

Regarding `Cc1nc(C)c(F)c(N2CCC(c3cc(N)[nH]n3)CC2)n1`, the “% Inhibition” value worked out at 2% and the Z score is -0.37.

For the molecule `CC(C)C[C@H]1Nc2ccccc2-c2nc(=O)c(-c3ccc(F)cc3)nn21`, the “% Inhibition” value is recorded as -9% and the Z score came out at 1.39.

Turning to `CCNS(=O)(=O)c1cccnc1Nc1ccc(F)c(Cl)c1`, the “% Inhibition” value stood at 0% and the Z score is listed as 0.03.

Turning to `CC(C)c1noc(CCNc2nc(-c3ccncc3)nc3c2cnn3C)n1`, the “% Inhibition” value worked out at 4% and the Z score is -0.93.

`COCCN1CCC[C@H](CNc2nc3nonc3nc2NC2CCCC2)C1`: the “% Inhibition” value is -1% and the Z score is given as 0.1.

On to `CCc1c(C(=O)N2CCN(CCN3CCOCC3)CC2)[nH]c2ccccc12`, for which the “% Inhibition” value turned out to be 3% and the Z score is recorded as -0.44.

With `CN1CCN(C[C@H]2CN(c3nc(N(C)C)cc(C(F)(F)F)n3)CCO2)CC1`, the “% Inhibition” value was 2% and the Z score is listed as -0.53.

For the molecule `NC[C@H]1CCCN(c2ccc(C(=O)N3CCC(N4CCOCC4)CC3)cn2)C1`, the “% Inhibition” value is on record as -2% and the Z score was found to be 0.28.

For `O=C(NCCc1cn2cccnc2n1)C1(N2CCOCC2)CCCCC1`, the “% Inhibition” value turned out to be 0% and the Z score is given as -0.11.

Turning to `Cn1ccc(N[C@@H](C(=O)c2c[nH]c3ccccc23)c2ccccc2)n1`, the “% Inhibition” value is recorded as 3% and the Z score was -0.57.

Consider `CN(C)CCCN1CCN(C(=O)c2ccc(-c3ccncc3F)cc2)CC1`, for which the “% Inhibition” value came out at 7% and the Z score is given as -1.04.

Take `COc1cc(CNC[C@H]2CCN(C3CC3)C2)cc2c1OCCO2`: the “% Inhibition” value is listed as 8% and the Z score is -1.35.

With `CCOC(=O)C[C@H](NC(=O)Nc1ccc(-c2cc3cc(Cl)ccc3[nH]2)cc1)c1ccccc1`, the “% Inhibition” value was -9% and the Z score is given as 1.53.

One may read the % Inhibition as the change of the read-out against control, counted positive when it falls.
